Experimental data published in PMC4336329 (PLoS ONE, 2015).
In all, about 310,000 compounds went through this assay and about 2,200 (0.71%) showed an effect of 50% or more. Effects have a minus sign here. Some of the results follow.

target: human ether-à-go-go-related gene (hERG) potassium channel (human, UniProt Q12809); assay: primary screen, population patch clamp on CHO cells stably expressing hERG
Sequence (Q12809 whole entry, looked up): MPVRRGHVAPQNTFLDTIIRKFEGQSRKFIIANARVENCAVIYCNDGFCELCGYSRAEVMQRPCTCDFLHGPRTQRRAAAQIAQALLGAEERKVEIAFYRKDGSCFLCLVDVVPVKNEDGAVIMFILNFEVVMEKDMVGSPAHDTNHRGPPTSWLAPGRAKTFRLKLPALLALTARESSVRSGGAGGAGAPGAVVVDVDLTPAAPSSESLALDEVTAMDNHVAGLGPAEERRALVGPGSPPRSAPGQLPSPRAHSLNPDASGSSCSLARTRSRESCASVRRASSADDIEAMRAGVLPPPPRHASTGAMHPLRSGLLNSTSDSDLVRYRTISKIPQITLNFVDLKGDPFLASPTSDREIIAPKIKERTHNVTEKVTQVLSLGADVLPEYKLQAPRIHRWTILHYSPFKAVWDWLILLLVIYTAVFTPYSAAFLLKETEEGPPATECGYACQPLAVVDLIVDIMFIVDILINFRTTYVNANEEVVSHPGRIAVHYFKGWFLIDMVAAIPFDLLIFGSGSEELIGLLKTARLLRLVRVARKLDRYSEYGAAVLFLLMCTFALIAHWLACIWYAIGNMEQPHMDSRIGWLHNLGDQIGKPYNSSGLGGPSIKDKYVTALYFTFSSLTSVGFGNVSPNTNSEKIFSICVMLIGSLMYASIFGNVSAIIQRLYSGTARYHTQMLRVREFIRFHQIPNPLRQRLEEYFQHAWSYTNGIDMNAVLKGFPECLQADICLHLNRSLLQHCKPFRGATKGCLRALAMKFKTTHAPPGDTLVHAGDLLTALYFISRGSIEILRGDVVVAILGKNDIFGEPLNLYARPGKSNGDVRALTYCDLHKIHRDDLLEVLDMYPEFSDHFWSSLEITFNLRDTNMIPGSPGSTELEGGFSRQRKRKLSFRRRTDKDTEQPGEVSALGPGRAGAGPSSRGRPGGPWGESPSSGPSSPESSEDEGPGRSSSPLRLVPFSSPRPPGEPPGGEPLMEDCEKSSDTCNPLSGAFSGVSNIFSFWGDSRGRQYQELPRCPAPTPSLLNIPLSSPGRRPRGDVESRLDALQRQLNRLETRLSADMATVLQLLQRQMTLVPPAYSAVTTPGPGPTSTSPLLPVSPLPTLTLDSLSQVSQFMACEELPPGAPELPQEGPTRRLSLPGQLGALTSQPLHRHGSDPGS

Going from `CC12CCC3C(CC=C4CC5(CCC43C)OCCO5)C1CCC2=O` (stereo not shown) to `O=C(CCCn1c(=O)[nH]c2cc(Cl)ccc2c1=O)N1CCC2(CC1)OCCO2`, the “hERG current change (%, negative = inhibition) at 1uM” value falls from 6.8% to 2.48%.

Going from `O=C(N/N=C/c1ccccn1)c1ccc([N+](=O)[O-])cc1Cl` to `C(=N\Nc1nc2ccccc2s1)/c1ccccn1`, the “hERG current change (%, negative = inhibition) at 1uM” value falls from 16.5% to 8.31%.

Compared with `Oc1c(C(c2ccco2)N2CCOCC2)sc2ncnn12` (stereo not shown), `O=C(COc1ccccc1)Nc1ccc(S(=O)(=O)N2CCOCC2)cc1` is higher in “hERG current change (%, negative = inhibition) at 1uM” value: 10.4% for the first, 19.7% for the second.

First: Cc1ccc2[nH]c(CNC(=O)c3ccccc3F)cc2c1
Second: COc1ccc(C(=O)NCCc2c[nH]c3ccccc23)cc1[N+](=O)[O-]
The “hERG current change (%, negative = inhibition) at 1uM” value of the first is lower: 8.54% for the first, 10.9% for the second.

Going from `Cc1oc(-c2ccccc2)nc1C(=O)OCC(=O)NC(C)c1ccccc1` (stereo not shown) to `CCOC(NC(=O)c1ccccc1)C(NC(=O)c1ccccc1)OCC` (stereo not shown), the “hERG current change (%, negative = inhibition) at 1uM” value falls from 9.25% to 5.07%.

First: Nc1cc(=O)n(Cc2ccccc2)c(=O)n1-c1ccc(F)cc1
Second: Cc1ccc(N2CCN(C3=NC(=O)C(Cc4ccccc4)S3)CC2)cc1 (stereo not shown)
The “hERG current change (%, negative = inhibition) at 1uM” value of the first is higher: 11.5% for the first, -1.41% for the second.

First: Cc1ccc(S(=O)(=O)Nc2cc(C(=O)N3CCOCC3)ccc2N2CCCCC2)cc1
Second: O=S(=O)(/N=C(/c1ccccc1)N1CCOCC1)c1ccc(Br)cc1
The “hERG current change (%, negative = inhibition) at 1uM” value of the first is lower: -2.73% for the first, 8.5% for the second.

First: CC1CCN(C(=O)c2ccc3c(c2)OCCO3)CC1
Second: CC1CCN(C(=O)c2[nH]cnc2C(=O)NCC(=O)OCc2ccccc2)CC1
The “hERG current change (%, negative = inhibition) at 1uM” value of the first is higher: 13.9% for the first, -2.81% for the second.

Compared with `OCCC1CN(Cc2ccc3nsnc3c2)CCN1C1CCCCC1` (stereo not shown), `O=C1C(Cl)=C(NC2CCCCC2)C(=O)N1Cc1ccccc1` is higher in “hERG current change (%, negative = inhibition) at 1uM” value: -4.23% for the first, 16.5% for the second.

Going from `Clc1ccsc1-c1ccc2ccccc2n1` to `Cc1cc(Nc2ccccc2Cl)c2ccccc2n1`, the “hERG current change (%, negative = inhibition) at 1uM” value falls from 10.7% to -9.92%.

First: O=C(NCCS(=O)(=O)N1CCN(c2ccccc2F)CC1)c1cccs1
Second: O=C(NC1CCN(S(=O)(=O)c2ccccc2F)CC1)c1cccnc1
The “hERG current change (%, negative = inhibition) at 1uM” value of the first is lower: 5.26% for the first, 8.55% for the second.

First: Clc1ccc(C2CC(c3ccccc3)Nc3ncnn32)cc1 (stereo not shown)
Second: Cl.Oc1ccc(C2NCc3ccccc3-n3cccc32)cc1Cl (stereo not shown)
The “hERG current change (%, negative = inhibition) at 1uM” value of the first is lower: -38.3% for the first, -0.359% for the second.

Compared with `CC(C)(C)OC(=O)N1CCN(C(=O)c2[nH]cnc2C(=O)Nc2cccc(Cl)c2)CC1`, `CC(C)C(NC(=O)Cc1ccccc1)C(=O)N1CCN(c2cccc(Cl)c2)CC1` (stereo not shown) is lower in “hERG current change (%, negative = inhibition) at 1uM” value: 12.3% for the first, -1.28% for the second.

Going from `O=C(NNC1OC(CO)C(O)C(O)C1O)c1cccnc1` (stereo not shown) to `Cc1cccc(C(=O)Nc2ccccc2C(=O)Nc2ccc(C(=O)O)cc2)c1`, the “hERG current change (%, negative = inhibition) at 1uM” value rises from 17.7% to 19.9%.

Going from `Cc1ccc(-c2noc(C3CCCN(S(=O)(=O)c4ccc5ccccc5c4)C3)n2)o1` (stereo not shown) to `O=C(c1cccc(S(=O)(=O)N2CCN(c3ccc(F)cc3)CC2)c1)N1CCCC(C(F)(F)F)C1` (stereo not shown), the “hERG current change (%, negative = inhibition) at 1uM” value falls from 12.4% to -5.54%.

First: O=C(N/N=C/c1cccs1)C(=O)N1CCCC1
Second: O=C(C1CC(c2ccccc2O)=NO1)N1CCCC1 (stereo not shown)
The “hERG current change (%, negative = inhibition) at 1uM” value of the first is higher: 7.16% for the first, 7.04% for the second.

First: CCCN(CC(=O)Nc1ccccc1C)C(=O)C1CC(=O)N(c2cccc(C)c2C)C1 (stereo not shown)
Second: COc1ccc(C)cc1NC(=O)NCCCCc1ccccc1
The “hERG current change (%, negative = inhibition) at 1uM” value of the first is higher: 7.3% for the first, 0.664% for the second.

First: CN(c1ccccc1)c1nc(N)c([N+](=O)[O-])c(NCc2ccccc2)n1
Second: COCCN(C(=O)COC(=O)c1cc2ccccc2cc1O)c1c(N)n(Cc2ccccc2)c(=O)[nH]c1=O
The “hERG current change (%, negative = inhibition) at 1uM” value of the first is higher: 17.3% for the first, 1.18% for the second.

Going from `O=C(COC(=O)c1ccco1)Nc1nc2ccc([N+](=O)[O-])cc2s1` to `CN1CCN(CC(=O)Nc2cccc([N+](=O)[O-])c2)CC1`, the “hERG current change (%, negative = inhibition) at 1uM” value rises from 3.4% to 5.95%.

Compared with `Cc1ccc(CS(=O)(=O)c2ncn[nH]2)cc1`, `Cc1ccc(CNC(=O)C2CCCN(c3nc(C)cc(C)n3)C2)cc1` (stereo not shown) is lower in “hERG current change (%, negative = inhibition) at 1uM” value: 21% for the first, 10.7% for the second.

Going from `Cc1cccc(NC(=S)N(Cc2cccc(Br)c2)CC2CCC(C(=O)O)CC2)c1` (stereo not shown) to `O=C(NCc1ccccn1)C1CCC(CNS(=O)(=O)c2cccc3nsnc23)CC1` (stereo not shown), the “hERG current change (%, negative = inhibition) at 1uM” value falls from 11.9% to 1.37%.

First: CC1=CC(=O)CC(C)(C)C1(O)/C=C/C(C)=C/C(=O)O (stereo not shown)
Second: CCOC(=O)C1C(c2cccs2)NC(=O)NC1(O)C(F)(F)F (stereo not shown)
The “hERG current change (%, negative = inhibition) at 1uM” value of the first is lower: 9.74% for the first, 12.7% for the second.

Compared with `C[N+]1(CN2C(=O)C3C4C=CC(C4)C3C2=O)CCCCC1.[I-]` (stereo not shown), `CC1CC(C)CN(C(=O)C2CCCN(S(=O)(=O)c3cccc4nonc34)C2)C1` (stereo not shown) is lower in “hERG current change (%, negative = inhibition) at 1uM” value: 12.3% for the first, 0.606% for the second.

First: O=C(NNc1ccccc1C(F)(F)F)c1sccc1Br
Second: O=C(O)c1ccc(N/N=C/c2cccc(C(F)(F)F)c2)cc1
The “hERG current change (%, negative = inhibition) at 1uM” value of the first is lower: 13.4% for the first, 16.7% for the second.

Going from `OC[C@H](O)[C@H](O)[C@@H](O)[C@@H](O)[C@@H]1SC(c2ccccc2)=NN1c1ccccc1` to `O=C1c2ccccc2C(=O)N1CCCCSc1nnnn1-c1ccccc1`, the “hERG current change (%, negative = inhibition) at 1uM” value falls from 9.58% to -19.8%.

Compared with `CC(C)[C@@H](CO)NC(=O)c1ccc2c3n(nc2c1)-c1ccc(Cl)cc1CO3`, `COc1ccc(OC)c(NC(=O)CSc2nnc(CNc3ccc(C)cc3C)o2)c1` is higher in “hERG current change (%, negative = inhibition) at 1uM” value: 5.84% for the first, 13.5% for the second.

Compared with `Cc1cc2cc(C)c(NCCNC(=O)c3cccc(F)c3)nc2cc1C`, `Cc1ccc(-n2ncc3c(=O)n(-c4ccc(C)c(C)c4)c(C)nc32)cc1` is higher in “hERG current change (%, negative = inhibition) at 1uM” value: 13.5% for the first, 14.8% for the second.

Compared with `COc1cccc(Cn2cccc(NC(=O)Nc3cccc(C#N)c3)c2=O)c1`, `COc1cccc(S(=O)(=O)NCc2ccc(C(=O)N3CCN(c4ccccc4OC)CC3)cc2)c1` is higher in “hERG current change (%, negative = inhibition) at 1uM” value: 8.57% for the first, 11.6% for the second.

First: S=C(NC1CC1)N1CCN(c2ccc(Cl)cc2)CC1
Second: O=C(c1ccc(Cl)cc1)N1CCN(c2ccc(F)cc2)CC1
The “hERG current change (%, negative = inhibition) at 1uM” value of the first is higher: 10.2% for the first, -9.05% for the second.

First: CC(=O)N[C@@H](Cc1c[nH]c2ccccc12)C(=O)OCC(=O)Nc1ccc(Cl)c(S(=O)(=O)N(C)C)c1
Second: COC(=O)NNC(=O)COc1ccc2ccccc2c1Br
The “hERG current change (%, negative = inhibition) at 1uM” value of the first is lower: 6.7% for the first, 8.65% for the second.

Compared with `CCOC(=O)C(C(=O)OCC)C1CCS(=O)(=O)C1` (stereo not shown), `CCC(=O)N1CCc2cc(S(=O)(=O)NCCC(=O)NC3CCCc4ccccc43)ccc21` (stereo not shown) is lower in “hERG current change (%, negative = inhibition) at 1uM” value: 13.8% for the first, 10.3% for the second.

Going from `N#Cc1nc(-c2ccc(OCc3ccccc3)cc2)oc1NCCCN1CCOCC1` to `O=C(NCc1ccccc1)C1CCCN(c2nc3ccsc3c(=O)s2)C1` (stereo not shown), the “hERG current change (%, negative = inhibition) at 1uM” value falls from 17.2% to 13%.

First: CCOC(=O)N1CCN(c2nnnn2-c2ccccc2)CC1
Second: CCC(=O)Nc1nnc(S(=O)(=O)N2c3ccccc3CC2C)s1 (stereo not shown)
The “hERG current change (%, negative = inhibition) at 1uM” value of the first is lower: 5.83% for the first, 10.6% for the second.

First: Cc1cc(C)nc(SCC(=O)Nc2ncc(Cc3cccc(Cl)c3Cl)s2)n1
Second: CC(=O)Nc1ccc2c(c1)ncn2C
The “hERG current change (%, negative = inhibition) at 1uM” value of the first is lower: 10.4% for the first, 21.1% for the second.

First: COc1ccc(OC)c(CCNC(=O)CCC(=O)N2CCOc3ccc(C)cc32)c1
Second: COc1ccc(C(=O)NCCCCCC(=O)N/N=C/c2ccco2)cc1OC
The “hERG current change (%, negative = inhibition) at 1uM” value of the first is lower: -6.5% for the first, 19.8% for the second.

First: CC(/C=C/c1ccc2c(c1)OCO2)=N\NC(=O)COc1ccccc1C
Second: COc1cc(CN2CCCC(CO)(Cc3ccccc3F)C2)ccc1O (stereo not shown)
The “hERG current change (%, negative = inhibition) at 1uM” value of the first is lower: -11.9% for the first, 4.84% for the second.

Compared with `COc1ccc(C(=O)OCc2c(F)cccc2Cl)cc1S(=O)(=O)N1CCOCC1`, `COc1cc(C2SCC(=O)N2c2c(C)n(C)n(-c3ccccc3)c2=O)ccc1O` (stereo not shown) is lower in “hERG current change (%, negative = inhibition) at 1uM” value: 6.64% for the first, -2.21% for the second.

First: O=c1[nH]c(=O)n(-c2cccc(Cl)c2)c(O)c1/C=N/c1ccccn1
Second: Cn1c(=O)[nH]c(=O)c2c1nc(Br)n2CC(O)COc1ccc(Cl)cc1 (stereo not shown)
The “hERG current change (%, negative = inhibition) at 1uM” value of the first is higher: 16.8% for the first, -23.7% for the second.

First: C#CCSc1nc2sc3c(c2c(=O)n1C)CCC3
Second: Cc1cccc2c(=O)n3c(nc12)CCCCC3
The “hERG current change (%, negative = inhibition) at 1uM” value of the first is lower: 3.53% for the first, 10.5% for the second.

First: CCSc1nnc(NC(NC(C)=O)(C(F)(F)F)C(F)(F)F)s1
Second: CCn1c(=NC(=O)CSC(C)=O)sc2ccccc21
The “hERG current change (%, negative = inhibition) at 1uM” value of the first is higher: 23.6% for the first, 5.86% for the second.

First: Cc1ccc2cc(CCNS(=O)(=O)c3ccc(Cl)cc3)c(=O)[nH]c2c1C
Second: Cc1ccc2nc(-c3ccc(NC(=O)C4CCCO4)cc3)[nH]c2c1 (stereo not shown)
The “hERG current change (%, negative = inhibition) at 1uM” value of the first is higher: 13.8% for the first, -9.2% for the second.

Compared with `CC(C)CN(CCCNC(=O)CN1C(=O)COc2ccc(S(=O)(=O)N3CCCCCC3)cc21)CC(C)C`, `O=C(NC1CCCCC1)C(c1ccc(F)cc1)N(Cc1ccco1)C(=O)Cn1nnc2ccccc21` (stereo not shown) is higher in “hERG current change (%, negative = inhibition) at 1uM” value: -4.22% for the first, 7.39% for the second.

Going from `C=C1CC(C(=O)N/N=C/c2ccc(O)cc2)C1` to `CC(=O)c1ccc(OC(C)C)c(CSc2nc(O)cc(=O)[nH]2)c1`, the “hERG current change (%, negative = inhibition) at 1uM” value rises from 7.31% to 14%.

Compared with `CCCOCC1CC2(CC(C)(c3csc(N)n3)OC2=O)C(=O)O1` (stereo not shown), `COc1ccc(N2C(=O)CC(N(CCc3ccc(OC)c(OC)c3)C(=S)Nc3ccccc3)C2=O)cc1` (stereo not shown) is lower in “hERG current change (%, negative = inhibition) at 1uM” value: 5.25% for the first, -0.158% for the second.
